# Measurements published in PMC4336329 (PLoS ONE, 2015).
# Out of some 310,000 compounds screened, about 14,000 (4.5%) showed an effect of 50% or more. The effect is printed as a negative number. The list shows a part of the results.
# Biological target: human ether-à-go-go-related gene (hERG) potassium channel (human, UniProt Q12809)
# Assay: primary screen, population patch clamp on CHO cells stably expressing hERG
# 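Also: peak tail current of the secondary pulse compared with the same well before compound.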
# Chain of human ether-à-go-go-related gene (hERG) potassium channel (Q12809 whole entry, looked up): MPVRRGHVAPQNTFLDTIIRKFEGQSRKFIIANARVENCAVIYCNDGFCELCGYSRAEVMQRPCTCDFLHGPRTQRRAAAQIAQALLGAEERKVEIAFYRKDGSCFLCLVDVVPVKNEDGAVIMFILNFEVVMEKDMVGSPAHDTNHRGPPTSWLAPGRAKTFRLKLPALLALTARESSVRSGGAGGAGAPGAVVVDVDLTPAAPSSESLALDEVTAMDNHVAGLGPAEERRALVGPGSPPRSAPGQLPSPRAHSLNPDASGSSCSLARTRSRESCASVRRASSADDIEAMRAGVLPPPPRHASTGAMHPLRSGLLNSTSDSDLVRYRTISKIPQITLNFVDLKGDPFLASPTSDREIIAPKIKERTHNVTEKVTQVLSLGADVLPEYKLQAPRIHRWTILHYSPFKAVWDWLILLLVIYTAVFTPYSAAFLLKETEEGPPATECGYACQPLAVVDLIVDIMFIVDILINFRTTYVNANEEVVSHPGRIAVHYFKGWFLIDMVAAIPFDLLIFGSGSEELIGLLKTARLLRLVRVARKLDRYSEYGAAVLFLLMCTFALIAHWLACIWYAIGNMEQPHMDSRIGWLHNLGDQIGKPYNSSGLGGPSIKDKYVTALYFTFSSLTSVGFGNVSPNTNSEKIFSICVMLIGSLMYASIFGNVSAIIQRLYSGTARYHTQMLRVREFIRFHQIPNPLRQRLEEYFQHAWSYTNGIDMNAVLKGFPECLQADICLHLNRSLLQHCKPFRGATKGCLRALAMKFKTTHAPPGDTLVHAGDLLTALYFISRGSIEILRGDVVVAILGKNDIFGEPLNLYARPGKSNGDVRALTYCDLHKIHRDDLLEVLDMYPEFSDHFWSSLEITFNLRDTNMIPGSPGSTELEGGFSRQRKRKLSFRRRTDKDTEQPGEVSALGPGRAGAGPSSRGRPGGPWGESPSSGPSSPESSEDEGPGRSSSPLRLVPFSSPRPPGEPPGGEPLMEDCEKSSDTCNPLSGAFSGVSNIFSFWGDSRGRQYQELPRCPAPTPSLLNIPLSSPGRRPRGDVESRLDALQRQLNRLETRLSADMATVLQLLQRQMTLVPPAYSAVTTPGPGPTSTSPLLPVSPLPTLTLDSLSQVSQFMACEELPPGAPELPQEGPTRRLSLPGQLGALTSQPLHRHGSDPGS
row,SMILES,"hERG current change (%, negative = inhibition) at 10uM"
1,O=C(CC1Nc2ccccc2NC1=O)NCCCN1CCCCCC1 (stereo not shown),13.2%
2,CCc1ccccc1NC(=S)N(CCN1CCCCC1)Cc1ccco1,-46.7%
3,N#C/C(=C\c1c[nH]c2ccc(Br)cc12)c1ccccn1,16.7%
4,O=C(Nc1ccccc1F)Nc1cc(Cl)ccc1-n1cncn1,18.8%
5,CC(C)(C)c1ccc(C(=O)NCCOc2ccccc2)cc1,-0.785%
6,CCc1cc(C(=O)Nc2ccccc2)cs1,-2.26%
7,Cc1ccc(NC(=S)NC(=O)c2ccc(F)cc2)cc1S(=O)(=O)Nc1ccccc1Cl,6.08%
8,CCn1nc(C)cc1C(=O)OCC(=O)c1ccc(Cl)cc1,12.1%
9,COc1ccc2nc(SCC(=O)N(C)C3CCCCC3)[nH]c2c1,6.52%
10,C/C(=N\NC(=O)Cc1cccc2ccccc12)c1ccncc1,-28.4%
11,Cc1onc(-c2ccccc2)c1C(=O)NCCc1ccc(S(N)(=O)=O)cc1,5.71%
12,Cc1ccccc1NC(=O)Cn1nc(C)c2ccccc2c1=O,3.92%
13,O=C(COc1ccc(S(=O)(=O)N2CCOCC2)cc1Cl)NCCN1CCOCC1,4.72%
14,O=C(Nc1ccc(CN2CCS(=O)(=O)CC2)cc1)c1ccccc1,-0.04%
15,Cc1cccc(C(=O)NC2CCN(C(=S)NCc3ccco3)CC2)c1,-46.7%
16,O=C(CCl)Nc1ccc2c(c1)OCO2,0.307%
17,COc1ccc(-c2[nH]ncc2CN(CCO)Cc2cccs2)c(F)c1,4.65%
18,COc1cc(OC)cc(C(=O)Oc2ccc(/C=N/Nc3nc4ccccc4s3)cc2OC)c1,12.3%
19,CCC(=O)Nc1cccc(C2=NOC3(C2)C[C@@H](C(N)=O)N(C(=O)c2ccc(OC)cc2)C3)c1 (stereo partly shown),4.44%
20,CC(C)(C)c1nnc(N/N=C/c2ccccc2O)n(N)c1=O,-35%
21,O=C1CCN(CCCc2ccccc2)CCN1[C@H](CO)Cc1ccccc1,-40.6%
22,COCCCNC(=S)NNC(=O)c1cc(-c2cccnc2)nc2ccccc12,10.8%

row,SMILES,"hERG current change (%, negative = inhibition) at 10uM"
1,Cc1ccc(S(=O)(=O)N2[C@@H](c3ccccc3)C(C(=O)O)=CC[C@H]2c2ccc(Cl)cc2)cc1,18.6%
2,COC(=O)C12CCC3(SCCS3)C(C(=O)OC)(CCC13SCCS3)C2,-15.9%
3,Cc1cc(C)n(-c2nc3ccccc3nc2N2CCCCCC2)n1,-13.5%
4,COc1cc(C2NC(=O)NC(C)=C2C(=O)OC(C)C)ccc1OC(=O)c1ccco1 (stereo not shown),5.9%
5,CC(Oc1ccc2c3c(c(=O)oc2c1)CCCC3)C(=O)NCc1ccncc1 (stereo not shown),4.36%
6,Cc1cccc(NC(=O)c2ccccc2NC(=O)CCC(=O)O)c1,2.31%
7,CCCCNC(=O)OCCNC(=O)NC,19.4%
8,O=C(O)CC(CNS(=O)(=O)c1ccccc1)c1ccccc1 (stereo not shown),20.5%
9,CC1CCCCN1C(=O)c1ccc(OC2CCN(S(=O)(=O)N(C)C)CC2)cc1 (stereo not shown),3.61%
10,COc1ccc(N(Cc2cc3cccc(C)c3[nH]c2=O)S(=O)(=O)c2ccc(OC)cc2)cc1,17.5%
11,CCC1Nc2ncnc(N3CCN(c4ccccc4)CC3)c2N(Cc2ccc(OC)cc2)C1=O.O=C(O)C(F)(F)F (stereo not shown),-6.09%
12,COc1ccc(S(=O)(=O)NCC2CCCN(Cc3cccc(C(C)=O)c3)C2)cc1 (stereo not shown),-43.9%
13,COc1ccc2nc(NC(=O)CSC3=NCCS3)sc2c1,0.0244%
14,Cc1ccc(C(=O)CC(=O)c2ccc(C(C)(C)C)cc2)cc1,15.3%
15,Cc1sc2nc(CSCC(=O)N(C)CC(=O)Nc3ccc(F)cc3)[nH]c(=O)c2c1C,-17.8%
16,CC(=O)Nc1ccc(N(CC(=O)NCC2CCCO2)C(=O)CCC(=O)Nc2cc(C)on2)cc1 (stereo not shown),17.5%
17,CCOc1ccc(N2C(=O)CC(NC3CCN(C(=O)c4cccc(Cl)c4)CC3)C2=O)cc1 (stereo not shown),-34.6%
18,Cn1c(=O)c2[nH]c(N3CCN(c4cccc(O)c4)CC3)nc2n(C)c1=O,28.1%
19,CCN1C(=O)C2(C(C#N)=C(N)Oc3n[nH]c(COC)c32)c2ccccc21 (stereo not shown),-1.58%
20,COc1cccc(C(=O)Nc2c(F)c(F)c(F)c(F)c2F)c1,-11.8%
21,O=C(O)CCn1nc(-c2ccc(F)cc2)cc(Cc2ccccc2)c1=O,10.6%
